Source: PMC4336329 (PLoS ONE, 2015)
The campaign covered roughly 310,000 compounds. About 14,000 (4.5%) showed an effect of 50% or more. Effects have a minus sign here. The list shows a part of the results.

Target: human ether-à-go-go-related gene (hERG) potassium channel (human, UniProt Q12809)
Test: primary screen, population patch clamp on CHO cells stably expressing hERG
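Also: peak tail current of the secondary pulse compared with the same well before compound.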

Chain of human ether-à-go-go-related gene (hERG) potassium channel (Q12809 whole entry, looked up): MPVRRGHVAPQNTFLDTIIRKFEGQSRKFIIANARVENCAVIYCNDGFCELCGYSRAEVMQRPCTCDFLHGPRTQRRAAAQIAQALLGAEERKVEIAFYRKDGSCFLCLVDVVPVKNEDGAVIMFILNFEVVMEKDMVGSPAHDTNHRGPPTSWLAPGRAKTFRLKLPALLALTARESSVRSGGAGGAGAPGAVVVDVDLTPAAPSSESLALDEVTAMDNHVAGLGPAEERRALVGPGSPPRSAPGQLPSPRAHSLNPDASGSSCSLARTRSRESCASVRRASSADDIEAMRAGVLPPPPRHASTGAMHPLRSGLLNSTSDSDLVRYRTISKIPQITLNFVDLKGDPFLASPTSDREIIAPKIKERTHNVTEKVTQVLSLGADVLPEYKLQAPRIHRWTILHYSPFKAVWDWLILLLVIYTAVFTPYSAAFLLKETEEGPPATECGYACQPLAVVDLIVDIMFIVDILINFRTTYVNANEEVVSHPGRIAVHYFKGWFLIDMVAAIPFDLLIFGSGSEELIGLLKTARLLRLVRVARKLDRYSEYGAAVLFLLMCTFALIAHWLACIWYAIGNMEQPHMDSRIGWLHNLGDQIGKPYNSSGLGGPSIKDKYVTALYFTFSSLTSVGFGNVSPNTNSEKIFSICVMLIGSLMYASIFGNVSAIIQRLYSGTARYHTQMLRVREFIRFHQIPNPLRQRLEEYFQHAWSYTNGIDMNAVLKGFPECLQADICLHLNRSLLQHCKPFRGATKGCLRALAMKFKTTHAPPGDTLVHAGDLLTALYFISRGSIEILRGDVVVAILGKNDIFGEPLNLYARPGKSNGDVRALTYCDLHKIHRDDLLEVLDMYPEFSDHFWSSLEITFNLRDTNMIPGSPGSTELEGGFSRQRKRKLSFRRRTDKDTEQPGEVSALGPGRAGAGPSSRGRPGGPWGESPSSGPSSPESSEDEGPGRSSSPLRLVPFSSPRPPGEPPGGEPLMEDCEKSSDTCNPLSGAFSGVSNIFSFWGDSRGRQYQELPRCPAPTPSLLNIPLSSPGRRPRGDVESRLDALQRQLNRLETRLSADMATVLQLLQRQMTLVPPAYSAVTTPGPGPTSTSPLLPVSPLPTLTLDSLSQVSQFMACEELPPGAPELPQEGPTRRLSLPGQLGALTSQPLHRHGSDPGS

Structure (SMILES) | hERG current change (%, negative = inhibition) at 10uM [%]
C/C(=N\S(=O)(=O)c1ccc(C)cc1)N1CCN(S(=O)(=O)c2ccccc2)C1 | -23.6
O=C1CCCc2c1cc(C(=O)NC1CCSC1=O)c(=O)n2-c1ccccc1 (stereo not shown) | 8.6
COc1ccc(C(=O)Nc2cnn(Cc3c(F)cccc3Cl)c2)cc1OC | -2.79
Clc1ccc(-c2nnc3sc(Cc4cccs4)nn23)cc1 | 4.77
COc1cccc(CN2CCN(c3cccc(C(F)(F)F)c3)CC2)c1OC | -23.9
CC(Oc1ccc(F)cc1)C(=O)Nc1ccc(S(=O)(=O)NC2=NCCCCC2)cc1 (stereo not shown) | -17.5
CCOc1ccc(C(C(=O)NCC2CCCO2)N(Cc2ccccc2)C(=O)c2snc(C(N)=O)c2N)cc1 (stereo not shown) | 5.26
CC(=O)c1ccc(S(=O)(=O)Nc2ccc(-c3cn4c(n3)SCC4)cc2)cc1 | -9.76
COc1cc(NC2=CC(=O)CC(C)(C)C2)cc(OC)c1OC | -8.44
COC(=O)c1cc([N+](=O)[O-])ccc1N1CCN(Cc2ccccc2)CC1 | -72.2
CC1(C)CC(=O)C=C(c2ccc3ncccc3c2)C1 | -0.907
Cc1cccc(NC(=O)c2ccc(COc3cccc4ccccc34)o2)n1 | 6.41
CN(CCO)c1cnccn1 | 22
COc1cc(/C=N\Nc2ccc([N+](=O)[O-])cn2)ccc1OCC(=O)O | 8.63
Cc1oc2c(c(C)cc3oc(=O)c(CC(=O)N[C@@H](CCCNC(N)=O)C(=O)O)c(C)c32)c1C | 29.7
Cc1nn(-c2ccccc2)c2c1C(c1cccnc1)N1C=C(S(=O)(=O)N3CCCCC3)C=CC1=N2 (stereo not shown) | -25.2
Cc1c(/C(Cc2ccccc2)=N/O)c2ccccc2n1C | -5.26
Cc1ccc(N(C(=O)c2csnn2)C(C(=O)NC2CCCCC2)c2ccccn2)cc1C (stereo not shown) | -4.55
CCOC(=O)C1CCN(C(c2ccc(OC)c(OC)c2)c2sc3nc(C)nn3c2O)CC1 (stereo not shown) | 9.76
O=C1c2ccccc2C(=O)N1CCOc1ccccc1Cl | 23.8
O=C(NC(c1ccccc1)c1cc(Cl)c2cccnc2c1O)c1cccnc1 (stereo not shown) | -2.27
COC(=O)c1ccc(OCC(=O)Nc2ccsc2C(=O)OC)cc1 | 5.73
O=c1[nH]c(SCc2ccccc2Cl)nc2c1CCCC2 | 7.18
O=C(O)/C=C\c1cn(-c2ccccc2)nc1-c1cc2ccccc2o1 | 35.9
Cc1nc(Nc2ccc(O)cc2)c2c3c(sc2n1)CCCC3 | -20.3
O=C(c1ccco1)N1CCN(Cc2cc(=O)c(OCc3ccccc3)co2)CC1 | -25.5
CCCCN(C)C(=O)C1CCN(C/C(C)=C/c2ccccc2)CC1.O=C(O)C(=O)O | -73.4
CCCn1cc([C@@H]2C[C@H]3CN(Cc4cccc(Cl)c4)C(=O)[C@]34CCCN24)c(C)n1 | -67.3

Structure (SMILES) | hERG current change (%, negative = inhibition) at 10uM [%]
Cn1nc(C(C)(C)C)c([N+](=O)[O-])c1C(=O)NCCO | -0.284
O=C(OCc1ccccc1Cl)c1ccc(-n2cnnc2)cc1 | -22.9
Cc1ccc(Cl)cc1N1C(=O)CC(C)(C)CC1=O | 19.3
O=C1OC(c2ccc(F)cc2)=C/C1=C\c1ccc(O)cc1 | 21.3
CSc1ncccc1C(=O)N1CCN(S(=O)(=O)c2ccc(F)cc2)CC1 | 11.8
O=C(O)C1CCC(CNS(=O)(=O)c2ccc(Cl)cc2)CC1 (stereo not shown) | 32.1
CSc1nnc(C)c(=O)n1COC(=O)COc1ccc(Cl)cc1 | 9.15
COc1ccc(CN2C(=O)C(O)(CC(=O)c3ccc4c(c3)OCO4)c3ccccc32)cc1OC (stereo not shown) | -11.2
CCOC(=O)CNC(c1ccccc1)c1cc(Br)ccc1NC(C)=O (stereo not shown) | -19
CCCN1CNc2c(c(=O)[nH]c(=S)n2-c2ccc(Cl)cc2)C1 | -1.46
Cc1cccc(-n2nnnc2SCC(=O)NCCN2C(=O)CSC2=O)c1 | -24
COc1ccc(Br)cc1CNCCSc1nnnn1C.Cl | -18.4
O=C(Cn1cc2c(n1)CCCC2)NC1CCN(Cc2ccccc2)CC1 | -8.32
Cc1nc(/C(=N/O)C(N)=O)cs1 | 17.7
CCCCOc1ccccc1Cn1c(=O)oc2ccc(C)cc21 | 3.83
CC(C)c1nnc(NC(=O)CCN2C(=O)c3ccccc3C2=O)s1 | 10.4
C1=CC2CC1CC2CN1CCN(Cc2ccccc2)CC1.O=C(O)C(=O)O (stereo not shown) | -11.6
COc1ccc(OC)c(C2=NOC(C(=O)NCc3ccccn3)C2)c1 (stereo not shown) | 2.95
O=C(CCN1CCc2ccccc2C1)Nc1cccc(F)c1 | -34
O=C(c1ccco1)N1CCN(C(c2ccc(F)cc2)c2nnnn2CC2CCCO2)CC1 (stereo not shown) | -13.7
CC(=O)c1cc(NC(=O)c2ccccc2)c(=O)oc1/C=C/N(C)C | -12.1
COc1ccc(C2=CSC3=NCCN23)cc1[N+](=O)[O-] | -26.1
O=CN(c1ccccc1)c1ccc2ccccc2c1 | -10.4
O=C(NCC(=O)N1CCN(S(=O)(=O)c2cccs2)CC1)c1ccc(Cl)cc1 | -47.9
O=C(Nc1nc2ccccc2s1)C1CC(=O)N(c2ccc(Br)cc2)C1 (stereo not shown) | 1.01
O=C(c1ccc(S(=O)(=O)c2cccc(Cl)c2)c([N+](=O)[O-])c1)N1CCN(Cc2ccccc2)CC1 | -1.62
COc1ccccc1NS(=O)(=O)c1cccc(C(=O)N/N=C(\C)c2ccc(-n3ccnc3)cc2)c1 | -38.8
